The whole screen tested about 220,000 compounds, of which about 5,700 (2.6%) were called active. Inconclusive means that the source gave no clear call. Such entries were picked first, then a sample of the others. Calls come from the whole dose curve; as a rule, active = well fitted inhibition curve with a large enough effect; inconclusive = small, poorly fitted or top-dose-only effect; inactive = no such curve, though single readings can be large or run the other way. Potencies of inconclusive entries are doubtful fits and often do not repeat.
biological target: Lysine-specific demethylase 5B (Homo sapiens) (UniProt Q9UGL1); experiment: Primary screen for KDM5B Histone Demethylases FDH-coupled qHTS; details: FDH-coupled NADH fluorescence (FDH is formaldehyde dehydrogenase); activity change, negative = inhibition: at 57.7 µM (top of the series); note: nearly all actives have a fitted effect of over 70% in size; for activity change, negative = inhibition: 0% is about no effect
UniProt Q9UGL1, sequence (Q9UGL1 whole entry, looked up): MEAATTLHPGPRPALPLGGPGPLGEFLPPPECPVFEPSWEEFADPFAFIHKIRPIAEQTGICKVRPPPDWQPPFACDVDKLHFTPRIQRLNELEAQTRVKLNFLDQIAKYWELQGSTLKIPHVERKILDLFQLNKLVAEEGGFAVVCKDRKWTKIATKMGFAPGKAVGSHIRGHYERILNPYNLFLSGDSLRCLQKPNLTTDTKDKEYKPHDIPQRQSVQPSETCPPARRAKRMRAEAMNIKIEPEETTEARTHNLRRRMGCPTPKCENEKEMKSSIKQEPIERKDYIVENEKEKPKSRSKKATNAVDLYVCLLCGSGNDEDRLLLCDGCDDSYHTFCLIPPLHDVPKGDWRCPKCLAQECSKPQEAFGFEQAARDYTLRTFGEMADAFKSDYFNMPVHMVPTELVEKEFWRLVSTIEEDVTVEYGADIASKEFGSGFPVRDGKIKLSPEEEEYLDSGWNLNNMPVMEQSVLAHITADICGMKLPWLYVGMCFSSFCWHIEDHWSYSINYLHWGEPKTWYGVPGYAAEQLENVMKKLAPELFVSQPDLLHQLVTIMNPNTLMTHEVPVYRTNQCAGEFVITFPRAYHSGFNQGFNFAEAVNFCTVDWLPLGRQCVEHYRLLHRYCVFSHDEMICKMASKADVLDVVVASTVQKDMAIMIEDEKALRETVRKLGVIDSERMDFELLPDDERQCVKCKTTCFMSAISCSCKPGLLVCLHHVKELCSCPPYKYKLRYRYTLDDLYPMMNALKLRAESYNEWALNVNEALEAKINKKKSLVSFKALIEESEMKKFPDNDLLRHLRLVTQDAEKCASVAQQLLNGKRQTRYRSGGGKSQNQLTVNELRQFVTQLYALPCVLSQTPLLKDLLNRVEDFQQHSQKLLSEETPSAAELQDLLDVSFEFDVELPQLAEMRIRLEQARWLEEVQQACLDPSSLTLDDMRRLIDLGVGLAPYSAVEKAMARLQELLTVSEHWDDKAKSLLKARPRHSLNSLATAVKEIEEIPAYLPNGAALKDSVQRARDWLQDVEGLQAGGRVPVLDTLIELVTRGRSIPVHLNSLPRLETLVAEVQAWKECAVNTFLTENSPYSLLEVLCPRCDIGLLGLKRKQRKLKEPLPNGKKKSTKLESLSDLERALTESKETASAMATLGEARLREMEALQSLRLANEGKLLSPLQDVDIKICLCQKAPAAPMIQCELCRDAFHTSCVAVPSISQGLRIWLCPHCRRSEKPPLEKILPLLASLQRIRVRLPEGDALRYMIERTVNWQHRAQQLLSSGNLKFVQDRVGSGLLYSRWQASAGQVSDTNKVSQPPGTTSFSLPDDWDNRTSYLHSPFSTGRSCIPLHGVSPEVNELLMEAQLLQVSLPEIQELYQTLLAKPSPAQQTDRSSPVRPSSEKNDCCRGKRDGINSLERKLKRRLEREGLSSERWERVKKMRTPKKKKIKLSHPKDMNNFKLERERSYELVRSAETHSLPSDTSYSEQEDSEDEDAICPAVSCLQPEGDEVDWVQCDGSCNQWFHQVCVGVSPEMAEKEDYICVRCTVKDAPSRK
Procedure, shortened: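 Here, H3K4me3 peptide (12.5 µM in substrate mix) is demethylated by KDM5BΔAP, 200 nM final, after 10 min compound exposure. Formaldehyde product is coupled through FDH (0.25 U/mL in mix) to NADH fluorescence; 30-min ΔRFU feeds dose-response curves.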
Potency is the fitted concentration of half-maximal effect; tags give direction and shape of the fitted curve.

Row | Structure (SMILES) | activity change, negative = inhibition | Potency
1 | CCCc1c(C)nc(N2CCN(CC)CC2)[nH]c1=O | inactive: 11.5% | 
2 | O=C(c1cn(Cc2ccccc2)c2ccccc12)N1CCC1 | inactive: 15.2% | 
3 | CC(=O)C1=C(C)OC(N)=C(C(=O)OCc2ccccc2)C12C(=O)Nc1ccccc12 (stereo not given) | inactive: 14.8% | 
4 | N#Cc1ccc(NC(=O)Cc2ccc3c(c2)CCC3)cc1Cl | inactive: -3.45% | 
5 | COc1ccc(C(=O)N2C[C@@H]3C[C@H](C2)c2c(-c4cccs4)ccc(=O)n2C3)cc1 |  | inconclusive: 35.5 µM [inhibitor, partial curve, poor fit]
6 | CCC(CC)c1cc([C@H]2CN3CC[C@H]2C[C@@H]3CNC2CCN(C)CC2)nc(-c2ccncc2)n1 |  | inconclusive: 25.1 µM [inhibitor, single point]
7 | COc1cc2c(cc1CCc1ccccc1)N(C(=O)c1ccn(C)n1)CC21CCN(C(C)=O)CC1 | inactive: 5.92% | 
8 | CN(C)C(CSS(=O)(=O)c1ccccc1)CSS(=O)(=O)c1ccccc1 |  | inconclusive: 15.8 µM [inhibitor, partial curve, poor fit]
9 | Cn1nc(-c2ccccc2)cc1[C@H]1CN2CC[C@H]1C[C@@H]2CNC(=O)N1CCOCC1 | inactive: -2.43% [at 86.2 µM] | 
10 | COc1cc2c(cc1CCc1ccccc1)N(C(=O)Cc1ccc3c(c1)OCO3)CC21CCN(C(C)=O)CC1 | inactive: -10.6% | 
11 | Cc1nc(-c2ccco2)cc([C@H]2CN3CC[C@H]2C[C@@H]3CNC(=O)C2CCCCC2)n1 |  | active: 31.6 µM
12 | O=C(c1ccccc1)N1CCC(C(=O)O)(c2ccccc2)CC1 | inactive: -17% [at 149 µM] | 
13 | c1ccc(C2=NOC3(CCCN(CC4CCCCC4)C3)C2)nc1 (stereo not given) | inactive: -11.1% [at 149 µM] | 
14 | Cc1ccc(NC(=O)N(Cc2ccc3c(c2)OCO3)C2CCN(Cc3ccccc3)CC2)cc1F | inactive: -10.8% | 
15 | N#C/C(=C\c1ccccc1)C(=O)Nc1ccc(Cl)cc1C(=O)c1ccccc1 |  | inconclusive: 5.01 µM [inhibitor, full curve, poor fit]
16 | Cc1ncc2c(n1)C[C@@H]1CC[C@H]2N1C(=O)c1sccc1C |  | inconclusive: 20 µM [inhibitor, single point]
17 | COc1ccc(CN2CCN(Cc3ccccc3OC)CC2)cc1 |  | inconclusive: 11.2 µM [inhibitor, partial curve, poor fit]
18 | C[n+]1c(-c2ccccc2)cc(-c2ccc(O)cc2)cc1-c1ccccc1 |  | inconclusive: 25.1 µM [inhibitor, single point]
19 | CN1C(=O)/C(=C/C=C/c2ccco2)C(=O)NC1=S |  | inconclusive: 25.1 µM [inhibitor, partial curve, poor fit]
20 | O=C(Cc1n[nH]c(=O)c2ccccc12)N1CCN(Cc2cccc3ccccc23)CC1 | inactive: 16.8% | 
